In the antibiotic and cytotoxicity screens of Wong et al. (2023):
Some of the results follow.

System: S. aureus RN4220
Assay: growth inhibition call (relative growth <= 0.2)
Details: 50 µM

Growth inhibition call, inactive:
C[C@@H]1CN([C@H](C)CO)C(=O)c2cc(-c3ccc(C(=O)N(C)C)cc3)cnc2O[C@H]1CN(C)C(=O)CN(C)C, COc1ccc(NC(=O)N(C)C[C@H]2OCCCC[C@H](C)Oc3ccc(NC(=O)c4ccccc4)cc3C(=O)N([C@H](C)CO)C[C@H]2C)cc1, O=C(C[C@H]1CC[C@@H]2[C@H](COC[C@@H](O)CN2C(=O)Nc2ccc(C(F)(F)F)cc2)O1)NCc1ccncn1, COc1ccc(NC(=O)Nc2ccc3c(c2)C(=O)N([C@H](C)CO)C[C@H](C)[C@H](CN(C)Cc2ccc(C(=O)O)cc2)OCCCC[C@@H](C)O3)cc1, Cc1noc(C)c1S(=O)(=O)Nc1ccc2c(c1)C(=O)N([C@H](C)CO)C[C@@H](C)[C@@H](CN(C)Cc1ccc(Oc3ccccc3)cc1)O2, C[C@@H]1CCCCO[C@H](CN(C)S(C)(=O)=O)[C@@H](C)CN([C@H](C)CO)C(=O)c2cc(NC(=O)Nc3cccc4ccccc34)ccc2O1, CC(C)NC(=O)Nc1ccc2c(c1)CC(=O)N([C@@H](C)CO)C[C@H](C)[C@@H](CN(C)C(=O)NC1CCCCC1)O2, O=c1[nH]c(=O)n([C@H]2C[C@H](O)[C@@H](CO)O2)cc1Br, C[C@@H]1CN([C@H](C)CO)C(=O)Cc2cc(NC(=O)CCCCCC(=O)Nc3ccccc3N)ccc2O[C@H]1CN(C)CC1CCCCC1, CNCCc1ccccn1, CCCC#Cc1ccc2c(c1)O[C@@H](CN(C)C(=O)c1cnccn1)[C@H](C)CN([C@@H](C)CO)S2(=O)=O, CC(C)NC(=O)Nc1ccc2c(c1)C(=O)N([C@H](C)CO)C[C@H](C)[C@@H](CN(C)Cc1ccccc1)OCCCC[C@@H](C)O2
